Experimental findings from article PMC9911399, “Two distinct binding modes provide the RNA-binding protein RbFox with extraordinary sequence specificity” are described below.

Where a chain is given by its changes, count along the chain named. The list shows a part of the results.

The chains are these.
B1: CAAUAAU (DNA:RNA)
RNA: GGGAGACCGGAAUUCAGAUUGUCCCAAUAAUUUAAAUCCCGUCGUAGCCACCA
DNA 1: CAATCTGAATTCCGGTCTCCC
DNA 2: TGGTGGCTACGACGGGATT
B2: CGCGUCG (DNA:RNA)
RNA: B1 RNA with A26G, A27C, U28G, A29U, A30C, U31G
DNA 1: CAATCTGAATTCCGGTCTCCC
DNA 2: TGGTGGCTACGACGGGATT
B3: GGCAGAC (DNA:RNA)
RNA: B1 RNA with C25G, A26G, A27C, U28A, A29G, U31C
DNA 1: CAATCTGAATTCCGGTCTCCC
DNA 2: TGGTGGCTACGACGGGATT
B4: ACACGUC (DNA:RNA)
RNA: B1 RNA with C25A, A26C, U28C, A29G, A30U, U31C
DNA 1: CAATCTGAATTCCGGTCTCCC
DNA 2: TGGTGGCTACGACGGGATT
B5: CGAGGAC (DNA:RNA)
RNA: B1 RNA with A26G, U28G, A29G, U31C
DNA 1: CAATCTGAATTCCGGTCTCCC
DNA 2: TGGTGGCTACGACGGGATT
B6: GGGACCU (DNA:RNA)
RNA: B1 RNA with C25G, A26G, A27G, U28A, A29C, A30C
DNA 1: CAATCTGAATTCCGGTCTCCC
DNA 2: TGGTGGCTACGACGGGATT
B7: AGUCAUC (DNA:RNA)
RNA: B1 RNA with C25A, A26G, A27U, U28C, A30U, U31C
DNA 1: CAATCTGAATTCCGGTCTCCC
DNA 2: TGGTGGCTACGACGGGATT
B8: CUCGUCA (DNA:RNA)
RNA: B1 RNA with A26U, A27C, U28G, A29U, A30C, U31A
DNA 1: CAATCTGAATTCCGGTCTCCC
DNA 2: TGGTGGCTACGACGGGATT
B9: AAUGCCG (DNA:RNA)
RNA: B1 RNA with C25A, A27U, U28G, A29C, A30C, U31G
DNA 1: CAATCTGAATTCCGGTCTCCC
DNA 2: TGGTGGCTACGACGGGATT
B10: CCCAUAU (DNA:RNA)
RNA: B1 RNA with A26C, A27C, U28A, A29U
DNA 1: CAATCTGAATTCCGGTCTCCC
DNA 2: TGGTGGCTACGACGGGATT
B11: GCUUAGG (DNA:RNA)
RNA: B1 RNA with C25G, A26C, A27U, A30G, U31G
DNA 1: CAATCTGAATTCCGGTCTCCC
DNA 2: TGGTGGCTACGACGGGATT
B12: CAUCGUG (DNA:RNA)
RNA: B1 RNA with A27U, U28C, A29G, A30U, U31G
DNA 1: CAATCTGAATTCCGGTCTCCC
DNA 2: TGGTGGCTACGACGGGATT
B13: GCUUGCC (DNA:RNA)
RNA: B1 RNA with C25G, A26C, A27U, A29G, A30C, U31C
DNA 1: CAATCTGAATTCCGGTCTCCC
DNA 2: TGGTGGCTACGACGGGATT
B14: CUGUACG (DNA:RNA)
RNA: B1 RNA with A26U, A27G, A30C, U31G
DNA 1: CAATCTGAATTCCGGTCTCCC
DNA 2: TGGTGGCTACGACGGGATT
B15: AUAACUC (DNA:RNA)
RNA: B1 RNA with C25A, A26U, U28A, A29C, A30U, U31C
DNA 1: CAATCTGAATTCCGGTCTCCC
DNA 2: TGGTGGCTACGACGGGATT
B16: UGUGUCU (DNA:RNA)
RNA: B1 RNA with C25U, A26G, A27U, U28G, A29U, A30C
DNA 1: CAATCTGAATTCCGGTCTCCC
DNA 2: TGGTGGCTACGACGGGATT
B17: GCGUGUC (DNA:RNA)
RNA: B1 RNA with C25G, A26C, A27G, A29G, A30U, U31C
DNA 1: CAATCTGAATTCCGGTCTCCC
DNA 2: TGGTGGCTACGACGGGATT
B18: UUAGCGC (DNA:RNA)
RNA: B1 RNA with C25U, A26U, U28G, A29C, A30G, U31C
DNA 1: CAATCTGAATTCCGGTCTCCC
DNA 2: TGGTGGCTACGACGGGATT
B19: ACCUACG (DNA:RNA)
RNA: B1 RNA with C25A, A26C, A27C, A30C, U31G
DNA 1: CAATCTGAATTCCGGTCTCCC
DNA 2: TGGTGGCTACGACGGGATT
B20: CAGGACU (DNA:RNA)
RNA: B1 RNA with A27G, U28G, A30C
DNA 1: CAATCTGAATTCCGGTCTCCC
DNA 2: TGGTGGCTACGACGGGATT
B21: GGUUUUA (DNA:RNA)
RNA: B1 RNA with C25G, A26G, A27U, A29U, A30U, U31A
DNA 1: CAATCTGAATTCCGGTCTCCC
DNA 2: TGGTGGCTACGACGGGATT
B22: AUGUCUC (DNA:RNA)
RNA: B1 RNA with C25A, A26U, A27G, A29C, A30U, U31C
DNA 1: CAATCTGAATTCCGGTCTCCC
DNA 2: TGGTGGCTACGACGGGATT
B23: GAUCAAA (DNA:RNA)
RNA: B1 RNA with C25G, A27U, U28C, U31A
DNA 1: CAATCTGAATTCCGGTCTCCC
DNA 2: TGGTGGCTACGACGGGATT
B24: CCGGACC (DNA:RNA)
RNA: B1 RNA with A26C, A27G, U28G, A30C, U31C
DNA 1: CAATCTGAATTCCGGTCTCCC
DNA 2: TGGTGGCTACGACGGGATT
B25: CUGCUGU (DNA:RNA)
RNA: B1 RNA with A26U, A27G, U28C, A29U, A30G
DNA 1: CAATCTGAATTCCGGTCTCCC
DNA 2: TGGTGGCTACGACGGGATT
B26: CAAACAA (DNA:RNA)
RNA: B1 RNA with U28A, A29C, U31A
DNA 1: CAATCTGAATTCCGGTCTCCC
DNA 2: TGGTGGCTACGACGGGATT
B27: AUCACUA (DNA:RNA)
RNA: GGGAGACCGGAAUUCAGAUUGUCCAUCACUAUUAAAUCCCGUCGUAGCCACCA
DNA 1: CAATCTGAATTCCGGTCTCCC
DNA 2: TGGTGGCTACGACGGGATT
B28: UUCUAGG (DNA:RNA)
RNA: B27 RNA with A25U, A28U, C29A, U30G, A31G
DNA 1: CAATCTGAATTCCGGTCTCCC
DNA 2: TGGTGGCTACGACGGGATT
B29: AGUGAGA (DNA:RNA)
RNA: B27 RNA with U26G, C27U, A28G, C29A, U30G
DNA 1: CAATCTGAATTCCGGTCTCCC
DNA 2: TGGTGGCTACGACGGGATT
B30: AAAGCGU (DNA:RNA)
RNA: B1 RNA with C25A, U28G, A29C, A30G
DNA 1: CAATCTGAATTCCGGTCTCCC
DNA 2: TGGTGGCTACGACGGGATT
B31: CAUCCAC (DNA:RNA)
RNA: B1 RNA with A27U, U28C, A29C, U31C
DNA 1: CAATCTGAATTCCGGTCTCCC
DNA 2: TGGTGGCTACGACGGGATT

The assay deals with T1, RBFOX1 RRM RbFoxmut (Fox-RRM*) (Homo sapiens, UniProt Q9NWB1 109-208, R118D;E147R;N151S;E152T).
T1 sequence: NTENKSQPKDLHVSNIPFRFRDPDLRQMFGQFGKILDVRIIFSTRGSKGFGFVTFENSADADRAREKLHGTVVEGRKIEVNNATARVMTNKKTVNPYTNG
The assay is described as follows: EMSA; HiTS-Eq, 1 nM pool, 10 min; buffer printed only for the single-RNA assays: 10 mM Tris pH 7.5, 150 mM NaCl, 3.4 mM EDTA, 0.001% NP-40, 30 C. The settings on record: tags: His6 N-terminal (pET28a); label: 5' 32P. In a few lines: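 Purified wild-type or mutant RbFox RRM at increasing concentrations was equilibrated with 1 nM of 5′-radiolabelled RNA carrying 7 randomized nucleotides for 10 min in 50 µL. Unbound RNA was separated by 8% native PAGE and sequenced. Relative association constants came from read-count changes of each RNA species compared with the control reaction, normalised to the cognate motif.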
Turning to B1, the binding signal is 0.0736 KA relative to UGCAUGU.

Turning to B2, the binding signal was 0.101 KA relative to UGCAUGU.

As to B3, the binding signal was 0.0737 KA relative to UGCAUGU.

Turning to B4, the binding signal was 0.0724 KA relative to UGCAUGU.

With B5, the binding signal was 0.0787 KA relative to UGCAUGU.

For B6, the binding signal is 0.0743 KA relative to UGCAUGU.

B7: the binding signal is 0.0996 KA relative to UGCAUGU.

B8: the binding signal was 0.113 KA relative to UGCAUGU.

Regarding B9, the binding signal was 0.0994 KA relative to UGCAUGU.

B10: the binding signal is 0.0892 KA relative to UGCAUGU.

On to B11, for which the binding signal was 0.118 KA relative to UGCAUGU.

Regarding B12, the binding signal was 0.139 KA relative to UGCAUGU.

With B13, the binding signal is 0.239 KA relative to UGCAUGU.

As for B14, the binding signal is 0.287 KA relative to UGCAUGU.

On to B15, for which the binding signal was 0.0826 KA relative to UGCAUGU.

Consider B16, for which the binding signal was 0.131 KA relative to UGCAUGU.

As for B17, the binding signal was 0.203 KA relative to UGCAUGU.

Turning to B18, the binding signal was 0.106 KA relative to UGCAUGU.

As to B19, the binding signal was 0.132 KA relative to UGCAUGU.

Turning to B20, the binding signal is 0.0481 KA relative to UGCAUGU.

For B21, the binding signal was 0.089 KA relative to UGCAUGU.

As for B22, the binding signal is 0.105 KA relative to UGCAUGU.

As for B23, the binding signal was 0.0616 KA relative to UGCAUGU.

Regarding B24, the binding signal is 0.0705 KA relative to UGCAUGU.

In the case of B25, the binding signal is 0.147 KA relative to UGCAUGU.

For B26, the binding signal is 0.0661 KA relative to UGCAUGU.

On to B27, for which the binding signal was 0.109 KA relative to UGCAUGU.

Turning to B28, the binding signal was 0.0868 KA relative to UGCAUGU.

Regarding B29, the binding signal is 0.101 KA relative to UGCAUGU.

With B30, the binding signal is 0.0803 KA relative to UGCAUGU.

Take B31: the binding signal was 0.0887 KA relative to UGCAUGU.
